Measured values published in US9839648B2, “Combined anti-acid-fast bacterial agent, screening method for anti-acid-fast bacterial agents, and activity inhibitor of WecA or ortholog thereof” (MICROBIAL CHEMISTRY RESEARCH FOUNDATION, priority 2013, dated 2017).
In brackets after ≈: the same amount, converted by molar mass. Read-outs that look alike come from different tables or passages of the source.

Test system: B. subtilis CPZEN-45-resistant strain (tagO T728G, Ile243Ser)

| Compound | MIC (Bacillus subtilis, 16 h) | MIC (B. subtilis CPZEN-45-resistant strain (tagO T728G), microbroth dilution, LB medium, 37° C., 16 hours) |
| --- | --- | --- |
| CCCCc1ccc(NC(=O)C2=CCN(C)[C@@H]([C@H](O[C@@H]3O[C@H](CN)C(O)C3O)[C@H]3O[C@@H](n4ccc(=O)[nH]c4=O)C(O)C3O)C(=O)N2C)cc1 (stereo partly drawn) [CPZEN-45] | > 128 µg/mL | – |
| CN[C@H](CC(C)C)C(=O)N[C@H]1C(=O)N[C@@H](CC(N)=O)C(=O)N[C@H]2C(=O)N[C@H]3C(=O)N[C@H](C(=O)N[C@H](C(=O)O)c4cc(O)cc(O)c4-c4cc3ccc4O)[C@H](O)c3ccc(c(Cl)c3)Oc3cc2cc(c3O[C@@H]2O[C@H](CO)[C@@H](O)[C@H](O)[C@H]2O[C@H]2C[C@](C)(N)[C@H](O)[C@H](C)O2)Oc2ccc(cc2Cl)[C@H]1O [vancomycin, reference compound] | 0.5 µg/mL (≈ 0.345 µM) | – |
| tunicamycin [reference compound] | – | 1 µg/mL |
